Experimental data from the supplement of paper PMC10338343.
± gives the standard deviation. The entries are a selection whose mix differs from that of the whole data set.

System: MIWI (PIWIL1) piRISC loaded with L1MC piRNA (30 nt)
Assay: pre-steady-state target cleavage rate (min^-1); MIWI and MILI are mouse PIWI proteins and EfPiwi is from a freshwater sponge; tags in brackets are library labels; higher = faster piRNA-guided slicing of the target
Conditions: guide: L1MC piRNA 5'p-UAACUAAAUACUAUGCAAGCUGUAGGUCCU
Method in brief: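 In HEPES–potassium acetate buffer at 33 °C, […] transcribed, DNA-blocked target RNA library was mixed with 1 nM active affinity-purified piRISC carrying one synthetic guide, with or without 500 nM GTSF1 partner protein, for 0–8 or 0–960 min. Uncleaved targets were sequenced and normalised to depth and to weakly complementary targets; three trials were pooled and k3 was capped at 0.0001 min^-1. The pre-steady-state cleavage rate followed from a burst-and-steady-state fit.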

[1] = auxiliary factor: 500 nM mouse GTSF1
[2] = auxiliary factor: none (no GTSF1)
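Also: 1 nM active piRISC with 0.1 nM target library at 33 °C single turnover.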

Sequence | pre-steady-state target cleavage rate [1] | pre-steady-state target cleavage rate [2]
UCCUGGAACAGUUUGCAUAGUAUUUAGUUA | 1.2 ± 0.044 | 0.0699 ± 0.013
UCCACCUACAGCUUGCAUAGUAUUUAUUUA | 0.395 ± 0.047 | 0.028 ± 0.0061
UCCUCCUACACCUUGCAUAGUAUUAAGUUA | 0.474 ± 0.071 | 0.0126 ± 0.0026
UCCUGGUACACCUUGCAUAGUUUUUAGUUA | 0.0764 ± 0.027 | 0.0132 ± 0.0038
UCCACCUACAGCUUGGAUAGUAUUUAGUAA | 0.747 ± 0.054 | 0.0244 ± 0.0052
UCCUGCUACAGCUUGCAUAGUAUAUAGAUA | 0.201 ± 0.051 | 0.00412 ± 0.0027
UCCUGGAACAGCUUGCAUUGUAUUAAGUUA | 0.376 ± 0.039 | 0.0147 ± 0.0063
UCGACCUACAGCUUGCAUACUAUUUAGAAA | 0.238 ± 0.039 | 0.00653 ± 0.0025
UCCUGGUACAGCUUGCAUAGUAUUUAGGUA | 0.0789 ± 0.017 | 0.0128 ± 0.0032
UCCUCGUACAGGUUGCAUAGUAUUUAGUUA | 1.2 ± 0.043 | 0.0358 ± 0.0068
UCCUGGAUGUCCUUGCAUAGUAUUUAGUGUA | 0.0232 ± 0.0073 | 0.00487 ± 0.0027
UGGACCUACAGCUUGCAAGUAUUUAGUUA | 0.305 ± 0.031 | 0.00674 ± 0.0026
UCCUGGAUGACCUUGCAUAGUAUUUUGUUA | 0.0626 ± 0.013 | 0.00725 ± 0.0021
UCGACCUACUGCUUGGAUAGUAUUUAGUUA | 1.67 ± 0.068 | 0.0575 ± 0.0089
AGGACCUACAGCAUGCAUACUAUUUAGUUA | 0.39 ± 0.023 | 0.0205 ± 0.0035
UGGACCAACAGCUUGGAUAGUAUUUAGUUA | 1.49 ± 0.054 | 0.0691 ± 0.011
UGGACCUACAGCUUGGAUAGUAUUUACUUA | 0.492 ± 0.053 | 0.0311 ± 0.0051
UCCUCCUACAGCUUGCAUAGUUAUUUAGUUA | 0.0773 ± 0.015 | 0.00479 ± 0.0018
AGGACCUACAGCUUGCAUAGUUUUUACUUA | 0.148 ± 0.023 | 0.0132 ± 0.0039
UCCUGGAUCAGUCUUGCAUAGUAUUUAGUUA | 0.691 ± 0.039 | 0.0276 ± 0.0062

Sequence | pre-steady-state target cleavage rate [1] | pre-steady-state target cleavage rate [2]
AGGACCUAGCAGCUUGCAUAGUAUUUAGUUA | 1.21 ± 0.073 | 0.0735 ± 0.015
UCCUGGAUGUGCUUGCAUAGUAAUUACUUA | 0.0268 ± 0.008 | 0.00786 ± 0.0028
UCCACCUACACGCUUGCAUAGUAUUUAGUUA | 0.853 ± 0.041 | 0.0539 ± 0.01
UCGACCUACAGCUUGCAUUGUUUUUAGUUA | 0.104 ± 0.0094 | 0.00774 ± 0.0015
AGGAGCUACAGCUUGCAUAGUAUUUAGAAA | 0.432 ± 0.05 | 0.0169 ± 0.0043
UCCUGGUACAGCUUGCAUAGUAAUUAGAAA | 0.19 ± 0.04 | 0.00377 ± 0.0035
UCCUGGAUCAGCUUGCUUUGUAUUUAGUUA | 0.0164 ± 0.004 | 0.00354 ± 0.0015
UCCACCUACAGCUUGCAUACAAUUUAGUUA | 0.0168 ± 0.0062 | 0.00369 ± 0.0021
UGGACGUACAGCUAGCAUAGUAUUUAGUUA | 0.986 ± 0.047 | 0.0457 ± 0.0096
AGGACCUACAGCAUGCAUUGUAUUUAGUUA | 0.835 ± 0.042 | 0.0152 ± 0.0043
UCCACCUACAGCUUGCAUAGUAUUGUAGUUA | 0.281 ± 0.047 | 0.00636 ± 0.0035
UCGACCUACAGCAUGCAUAGUAUAUAGUUA | 0.982 ± 0.062 | 0.016 ± 0.0035
AGGACCUACAGCUUGGAUAGUAUUUACAAA | 0.175 ± 0.036 | 0.00394 ± 0.002
UCCUGCUACACCUUGCAUAGUAUUUACUUA | 0.229 ± 0.056 | 0.0124 ± 0.0051
UCCUGGUACAGCUUGCAUAGAAUUUUGUUA | 0.131 ± 0.033 | 0.00447 ± 0.0042
UCCAGGAACAGCUUGCAUAGUAUUUUCAAA | 0.232 ± 0.035 | 0.00318 ± 0.0021
UCCUGGAACAGGUUGCAUAGUAUUUUGUUA | 0.538 ± 0.048 | 0.012 ± 0.0027
UCCUGGAACAGCUUGCAUAGUAUUUAAUUA | 0.215 ± 0.026 | 0.0325 ± 0.0075
AGGACCUACAGCUUGCAUAGUCUUUAGUUA | 0.781 ± 0.063 | 0.0545 ± 0.011
UCCUGCUACAGCUUGCAUACUAUUUUGUUA | 0.24 ± 0.026 | 0.0165 ± 0.0024

Sequence | pre-steady-state target cleavage rate [1] | pre-steady-state target cleavage rate [2]
UCCUGCUACAAGCUUGCAUAGUAUUUAGUUA | 0.539 ± 0.038 | 0.0289 ± 0.0068
UCCUGCUACAGCUUGCUAAGUAUUUAGUUA | 0.22 ± 0.024 | 0.00354 ± 0.0021
AGUGACCUACAGCUUGCAUAGUAUUUAGUUA | 1.38 ± 0.056 | 0.0885 ± 0.015
AGGACCUACACCUUGCAUAGUAUAUAGUUA | 0.744 ± 0.062 | 0.0313 ± 0.0065
UCCUGCUACAGGUUGCAUAGUAAUUAGUUA | 0.851 ± 0.08 | 0.0111 ± 0.0023
UCCUGCUUGAGCUUGCAUAGUAUUUUCAAA | 0.0986 ± 0.019 | 0.00249 ± 0.0023
UCCUGCUACAGCUGCAUAGUAUUUAGUUA | 0.69 ± 0.05 | 0.00487 ± 0.0021
UCCUGGAUGUGCUUGCAUAGAAUUUAGAAA | 0.0056 ± 0.0042 | 0.00317 ± 0.0024
UCCUGGUUGAGCUUGCAUAGUAUUUAGUAA | 0.54 ± 0.047 | 0.0223 ± 0.0069
UCCUGGAUGAGCUUGCAUAGUAUUCAGUUA | 0.311 ± 0.031 | 0.0236 ± 0.0075
UCCUGCAACAGCUUGCAUAGUAAUUAGUUA | 0.917 ± 0.058 | 0.0258 ± 0.007
AGGACGUACAGCUUGGAUAGUAUUUAGUUA | 1.36 ± 0.067 | 0.0579 ± 0.0083
UCCACCUACAGCUUGCAUAGUAUUUAGAUA | 0.501 ± 0.07 | 0.0222 ± 0.0082
AGGACCUAGUGCUUGCAUAGUAUUUUCAAA | 0.0853 ± 0.021 | 0.00244 ± 0.0023
UCCUGGAUCAGCUUGCAUAGAAUUUUGUUA | 0.235 ± 0.039 | 0.0144 ± 0.0063
UCCUCCUACAGGAAGCAUAGUAUUUAGUAA | 0.612 ± 0.088 | 0.00254 ± 0.0019
UCCUGGAUCAGCUUGCAUACUUUUUAGUUA | 0.014 ± 0.0033 | 0.00335 ± 0.0016
AGGACCUUCAGCUAGCAUAGUAUUUAGUUA | 1.06 ± 0.046 | 0.0561 ± 0.012
UCCUGGAUGUGCUUGCAUUGUAUUUAGUUA | 0.0683 ± 0.01 | 0.016 ± 0.0042
UCCUCCUACAGCUUGCAUAGUAUUAUGUUA | 0.347 ± 0.03 | 0.0125 ± 0.0043
